Consider 17 molecules from patent US20250326857A1 (KISOJI BIOTECHNOLOGY, published 2025).

Positions count from the first letter of the chain named.

The chains are these.
B1: KF040 (Fc fusion)
VHH-hinge-CH2-CH3 chain: QVQLQESGGGLVQAGGSLRLSCAASGRTFSSYAMGWFRQAPGKEREFVAAISWSGGRTYYDDPVKGRFTISRDNAKNTVYLQMNSLKPEDTAVYYCNLDPEYSGTWNPWAGSGYWGQGTQVTVSS[left out - human IgG1 Fc]
notes: may comprise a His-tag or not
B2: KF038 (Fc fusion)
VHH-hinge-CH2-CH3 chain: QVQLQESGGGLVQAGGSLRLSCAASGDTICTSAMAWYRQAPGKERELVAGISSGGTVYYADSVKGRFTISRDNAKNTVYLQMNTLKPEDTAVYYCNAGPEVHDDVFRLCGPTTDYWGQGTQVTVSS[left out - human IgG1 Fc]
notes: may comprise a His-tag or not
B3: KF035 (Fc fusion)
VHH-hinge-CH2-CH3 chain: QVQLQESGGGLVQPGGSLRLSCAASGRTFSSYPMGWFRQAPGKEREFVAAIDWSGDITYYADSVKGRFAISRDNAKNMVYLQMNSLKPEDTAVYYCNAGPLDSWERNDFPSWGQGTQVTVSS[left out - human IgG1 Fc]
notes: may comprise a His-tag or not
B4: KF036 (Fc fusion)
VHH-hinge-CH2-CH3 chain: B3 VHH-hinge-CH2-CH3 chain with G113D
notes: may comprise a His-tag or not
B5: KF028 (Fc fusion)
VHH-hinge-CH2-CH3 chain: QVQLQESGGGLVQPGGSLRLSCAASGFSLDYFAIGWFRQAPGKEREGISCISSSGSNTYYADSVKGRFTISRDNAKNTVYLQMNSLKPEDTAVYYCAAHDYCSRAPYDYWGQGTQVTVSS[left out - human IgG1 Fc]
notes: may comprise a His-tag or not; no bar is labelled KC028 on the sheet, and the only antibody bar at the control's level is labelled KF028
B6: KF039 (Fc fusion)
VHH-hinge-CH2-CH3 chain: QVQLQESGGGLVQPGGSLRLSCAASGFTLDYYAIGWFRQAPGKEREGIVYISNSDGNTYYADSVKGRFTISRDNAKNTVYLQMNSLKPEDTAVYYCAADQGSSVMHGFIEEWYDYWGQGTQVTVSS[left out - human IgG1 Fc]
notes: may comprise a His-tag or not
B7: KF024 (Fc fusion)
VHH-hinge-CH2-CH3 chain: QVQLQESGGGLVQPGGSLRLSCAASGFTFSNYAMSWYRQTPGKERELVAAMQSTGGTTYYADSVKGRFTISRDDAKNTVYLQMNSLKPEDTAVYYCNAVTLQGWSEYDYWGQGTQVTVSS[left out - human IgG1 Fc]
notes: may comprise a His-tag or not
B8: KF029 (Fc fusion)
VHH-hinge-CH2-CH3 chain: B7 VHH-hinge-CH2-CH3 chain with G16E
notes: may comprise a His-tag or not
B9: KF033 (Fc fusion)
VHH-hinge-CH2-CH3 chain: QVQLQESGGGLVQLGGSLRLSCAASGFTFSNYYMSWYRQAPGKERELVGGINMTGGSADYVDSVKGRFTISRDNTKNTVYLQMNSLRVEDTAVYYCHTFSVWPPNNYWGQGTQVTVSS[left out - human IgG1 Fc]
notes: may comprise a His-tag or not
B10: KF026 (Fc fusion)
VHH-hinge-CH2-CH3 chain: QVQLQESGGGLVQPGGSLRLSCAASGLAFSTYAMSWYRQAPGKERELVALITSAGGTTDYADSVKGRFTISRDDAEKTVSLQMNSLKPEDTAVYYCSAWRATLFKPYWGQGTQVTVSS[left out - human IgG1 Fc]
notes: may comprise a His-tag or not
B11: KF037 (Fc fusion)
VHH-hinge-CH2-CH3 chain: B10 VHH-hinge-CH2-CH3 chain with V12A, L27F, A28T, F29V, T57I, S71A
notes: may comprise a His-tag or not
B12: KF034 (Fc fusion)
VHH-hinge-CH2-CH3 chain: B10 VHH-hinge-CH2-CH3 chain with L27F, A28S, A40P, S53T, A54T, F104L
notes: may comprise a His-tag or not
B13: KF023 (Fc fusion)
VHH-hinge-CH2-CH3 chain: B10 VHH-hinge-CH2-CH3 chain with L27F, A28T, T31S, T102S, F104Y, K105E
notes: may comprise a His-tag or not
B14: KF030 (Fc fusion)
VHH-hinge-CH2-CH3 chain: QVQLQESGGGLVQPGGSLRLSCAASGFRFSSSIMSWYRQAPEKERELVASISSDSVRTNYAESVKGRFTISRDNEQSTLFLEMNNLKPVDTAVYFCTRPSIRGRDWGQGTQVTVSS[left out - human IgG1 Fc]
notes: may comprise a His-tag or not
B15: KF032 (Fc fusion)
VHH-hinge-CH2-CH3 chain: B14 VHH-hinge-CH2-CH3 chain with S31T, S35T, E42G, V56R, S77R, T78M, L79V, N85S, S100N
notes: may comprise a His-tag or not
B16: KF025 (Fc fusion)
VHH-hinge-CH2-CH3 chain: QVQLQESGGGLVQPGGSLRLSCTASGFTFSSYAMSWYRQAPGKERELVAAIPHDGGSIYYVDSVKGRFSISRDNAKNTVYLQMNSLKPEDTAVYYCNAVTLQGWREYDYWGQGTQVTVSS[left out - human IgG1 Fc]
notes: may comprise a His-tag or not
B17: KF027 (Fc fusion)
VHH-hinge-CH2-CH3 chain: QVQLQESGGGLVQPGGSLRLSCAASGFTSGFTFSSYAMSWYRQAPGKERELVAAITNAGDSTHYADSVKGRFTISRDNAKNTVYLLMNSLKPEDTAAYYCNAVTLQGWSEYDYWGQGTQVTVSS[left out - human IgG1 Fc]
notes: may comprise a His-tag or not

The first assay deals with T1, recombinant human CD36 protein (SinoBiological, Cat No. 10752-H08H) (human, UniProt P16671 30-439).
T1 construct: Bought protein coated on the ELISA plate; also called recombinant CD36
Nature of the assay: ELISA: plate coated with 1 µg/ml recombinant CD36, test molecule at 10 µg/ml, anti-human IgG Fc-HRP, chemiluminescence (RLU). The procedure: ELISA Binding Assay The 96-well plates were coated with 1 μg/ml recombinant CD36 (SinoBiological, Cat No. 10752-H08H) protein and incubated at 4° C. overnight. The next day, plate was washed three times and blocked with blocking buffer for 1 hour at 37° C. At the end of the incubation, test molecules were diluted to 10 μg/ml, and distributed into corresponding wells for incubation at 37° C. After 1 hour of incubation, wells were washed for three times. Anti-human IgG Fc-HRP 2nd Ab (Sigma-Aldrich, AP113P) was diluted in 1:5000 dilution and distributed into corresponding wells for 1 hour incubation at 37° C. At the end of the incubation, the wells were washed 3 times, then 100 ul SuperSignal ELISA Pico Chemiluminescent Substrate (ThermoFisher, Cat No. 37069) was added into the wells to detect signals. Plates were read on a plate reader after the addition of the chemiluminescent substrate. Raw Data was collected as Chemiluminescence value for each well (RLUs). Data was plotted and represented as Mean of two replicates ±SD.
On the technique in general: An ELISA detects its analyte on a solid surface through an enzyme-linked reagent.
On to B1, for which the binding result is “binds”.

Turning to B2, the binding result is given as “binds”.

With B3, the binding result was “binds”.

On to B4, for which the binding result was “binds”.

In the case of B5, the binding result was “binds”.

As for B6, the binding result is reported as “binds”.

On to B7, for which the binding result was “binds”.

As to B8, the binding result is given as “binds”.

Regarding B9, the binding result was “binds”.

As to B10, the binding result was “binds”.

For the molecule B11, the binding result was “binds”.

As to B12, the binding result is listed as “binds”.

On to B13, for which the binding result was “binds”.

As to B14, the binding result was “binds”.

On to B15, for which the binding result is “binds”.

Turning to B16, the binding result is given as “binds”.

On to B17, for which the binding result is on record as “binds”.

A further assay concerns the target T2, CD36 on CD36 positive OCI-AML3 cells (UniProt P16671 2-472).
T2 construct: whole, on cells; Endogenous CD36 on a CD36-positive cell line, measured by flow cytometry; also called OCI-AML3 cells (CD36+)
Nature of the assay: flow cytometry on OCI-AML3 cells (CD36+), anti-human Fc-APC, MFI; OCI-AML4 cells (CD36-) as negative cell line; antibody concentration not given. The protocol: Cells were harvested and first blocked with Fc block (Biolegend, Cat No. 422302) on ice for 10 mins. The cells were then incubated with test molecules on ice for 30 mins. To detect the binding of test molecules, cells were washed once and further incubated with anti-human Fc-APC (Biolegend, Cat No. 410712) for 30 minutes incubation on ice. At the end of incubation, cells were washed and resuspended in FACS buffer with 1:100 7-AAD (BD Bioscience, Cat No. 559925) added. Data was acquired on BD Canto II flow cytometry machine. Raw data was collected as Mean Fluorescence Intensity (MFI). Data was plotted and represented as Mean of two replicates ±SD.
On the technique in general: In flow cytometry, cells or beads pass a laser one at a time.
B1: the binding result was “binds”.

On to B2, for which the binding result is recorded as “binds”.

Take B3: the binding result is “binds”.

Take B4: the binding result is on record as “binds”.

For the molecule B5, the binding result is reported as “no binding”.

B6: the binding result was “binds”.

As for B7, the binding result was “binds”.

For the molecule B8, the binding result is “binds”.

As to B9, the binding result was “binds”.

Consider B10, for which the binding result is “binds”.

With B11, the binding result is listed as “binds”.

For the molecule B12, the binding result is “binds”.

As to B13, the binding result is recorded as “binds”.

On to B16, for which the binding result was “binds”.

Turning to B17, the binding result was “binds”.
